Reference: PMC4336329 (PLoS ONE, 2015)
Hit rate of the full screen: of about 310,000 compounds, about 14,000 (4.5%) showed an effect of 50% or more. Effects have a minus sign here. Some of the results follow.

Molecular target: human ether-à-go-go-related gene (hERG) potassium channel (human, UniProt Q12809)
Assay: primary screen, population patch clamp on CHO cells stably expressing hERG
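Further: peak tail current of the secondary pulse compared with the same well before compound.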

human ether-à-go-go-related gene (hERG) potassium channel, sequence (Q12809 whole entry, looked up): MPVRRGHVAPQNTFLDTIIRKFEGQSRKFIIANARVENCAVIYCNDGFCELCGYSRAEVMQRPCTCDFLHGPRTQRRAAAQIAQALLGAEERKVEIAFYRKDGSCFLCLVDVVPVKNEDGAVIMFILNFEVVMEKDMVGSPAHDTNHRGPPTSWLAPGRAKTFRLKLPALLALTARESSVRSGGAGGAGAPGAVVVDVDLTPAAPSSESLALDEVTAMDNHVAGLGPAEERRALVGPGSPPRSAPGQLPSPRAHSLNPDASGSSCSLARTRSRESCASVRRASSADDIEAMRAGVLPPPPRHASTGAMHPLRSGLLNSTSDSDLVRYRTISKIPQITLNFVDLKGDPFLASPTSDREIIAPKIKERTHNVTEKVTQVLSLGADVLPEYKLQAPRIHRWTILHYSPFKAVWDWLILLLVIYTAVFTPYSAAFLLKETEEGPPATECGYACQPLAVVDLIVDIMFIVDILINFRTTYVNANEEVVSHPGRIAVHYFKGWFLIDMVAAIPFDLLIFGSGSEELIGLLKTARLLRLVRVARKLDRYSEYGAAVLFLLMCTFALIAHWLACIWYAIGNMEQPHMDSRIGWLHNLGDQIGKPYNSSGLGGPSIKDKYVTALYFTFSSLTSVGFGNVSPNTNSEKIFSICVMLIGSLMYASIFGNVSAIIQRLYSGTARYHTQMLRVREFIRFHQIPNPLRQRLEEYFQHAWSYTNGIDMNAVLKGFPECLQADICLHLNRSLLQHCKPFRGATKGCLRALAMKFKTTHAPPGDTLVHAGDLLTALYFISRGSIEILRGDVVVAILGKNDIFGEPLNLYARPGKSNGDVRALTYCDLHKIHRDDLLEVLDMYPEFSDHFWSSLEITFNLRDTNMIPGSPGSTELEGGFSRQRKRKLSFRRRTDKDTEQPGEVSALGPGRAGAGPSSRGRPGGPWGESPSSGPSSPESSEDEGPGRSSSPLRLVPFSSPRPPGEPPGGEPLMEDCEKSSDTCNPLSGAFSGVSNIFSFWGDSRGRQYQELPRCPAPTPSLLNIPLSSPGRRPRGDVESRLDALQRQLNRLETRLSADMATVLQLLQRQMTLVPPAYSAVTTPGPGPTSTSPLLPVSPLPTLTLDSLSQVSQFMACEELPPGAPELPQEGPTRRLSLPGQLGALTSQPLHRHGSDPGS

Compound	hERG current change (%, negative = inhibition) at 10uM [%]
CN(C)c1nc(N)c([N+](=O)[O-])c(NCc2ccccc2)n1	4.16
Cc1cccc(NC(=O)CSc2nc3[nH]ncc3c(=O)n2-c2ccccc2)c1	-41.2
CCC1CCC(C(=O)NC(C(=O)NCCN2CCOCC2)C(C)C)CC1 (stereo not shown)	9.32
Oc1ccc(N=Nc2ccc3c(c2)OCCO3)c2ncccc12	3.61
CCC(C)(C)NC(=O)CN(Cc1cccs1)C(=O)CCC(=O)Nc1nccs1	-36.6
O=C(c1n[nH]c(=O)c2ccccc12)N1CCC2(CC1)OCCO2	16.7
Cn1c(Cn2c(=O)sc3ccccc32)nnc1SCC(=O)Nc1ccc2c(c1)OCO2	0.687
Nc1ccc(C(=O)[O-])c(O)c1.O.[Na+]	11.7
O=C(OCC(=O)N1CCc2ccccc2C1)c1ccc(N2CCOCC2)c([N+](=O)[O-])c1	-51
CC(=O)c1cc2c(cc1NS(=O)(=O)c1ccccc1C)OCO2	0.0355
CN1CCc2c(c3c(n2C)CCN(C)[C@@H]3c2cccnc2)[C@H]1c1cccnc1.Cl	35.9
O=C(OCCCc1cc2ccccc2c(=O)o1)c1ccc(F)cc1	-37.9
COc1ccccc1CN1CCC(n2nccc2NC(=O)CCCc2ccccc2)CC1	-85.2
COC(=O)c1cc(NC(=O)c2ccccc2)c(=O)oc1C/C=N\OCc1ccc(Cl)cc1Cl	-11.7
CCOc1ccc(NC(=O)NNC(=O)C(C)Oc2ccccc2OC)cc1 (stereo not shown)	-0.531
O=[N+]([O-])c1cc(C(F)(F)F)ccc1NC1CCN(Cc2ccccc2)CC1	-68
Cc1cccc(NS(=O)(=O)c2ccc(C(=O)N3CCC3)cc2)c1C	1.53
O=[N+]([O-])c1ccc(Oc2cccnc2)nc1	12.7
CCCS(=O)(=O)c1nc(S(=O)(=O)c2ccc(C)cc2)c(N2CCN(CC)CC2)s1	-36.4
CS(=O)(=O)O.Clc1cccc2c1Sc1ccccc1CC2N1CCNCC1 (stereo not shown)	-72.4
COc1ccc(C(=O)Nc2cccnc2)cc1C(=O)Nc1cccnc1	20.3
CCOC(=O)c1ccc(NC(=O)Oc2cc(C)c(Cl)cc2C(C)C)cc1	3.44
CC(C)c1ccc(O)c(NC(=O)c2ncn[nH]2)c1	5.34
Cc1ccccc1CNS(=O)(=O)c1c(C)[nH]c(C)c1C(=O)N1CCCCC1	-22.2
CCCCC(=O)Nc1nc(C)c(-c2csc(Nc3cc(Cl)ccc3OC)n2)s1	4.31
N/C(=N\OC(=O)c1ccc(Br)cc1)c1ccncc1	-4.59
CCOc1cccc(C2C(C(=O)c3ccc(C)o3)=C(O)C(=O)N2c2nccs2)c1 (stereo not shown)	0.752
COc1ccccc1N(C(C)=O)c1nc(C)cc(C)c1C#N	-4

Compound	hERG current change (%, negative = inhibition) at 10uM [%]
CCOC(=O)c1sc(C)c2c(=O)n(CC)nnc12	1.94
CC1(C)NC(=O)N(CC(O)COc2ccccc2-c2ccccc2)C1=O (stereo not shown)	0.437
O=C1[C@H]2[C@@H](c3ccc(F)cc3)N3C(=O)N(c4ccc(Br)cc4)C(=O)[C@@]3(Cc3ccccc3)[C@H]2C(=O)N1C1CCCCC1	4.66
N#CCOC(=O)c1sccc1-n1cccc1	-4.8
Cc1ccc(OCC2Cn3c(nc4c3c(=O)n(C)c(=O)n4C)O2)cc1 (stereo not shown)	-10.9
COC(=O)CNC(=O)c1c(-c2c(Cl)cccc2Cl)noc1C	1.78
CCC(C)c1ccccc1OCCCN(C)Cc1ccccc1 (stereo not shown)	-27
COc1ccc(N2CC(C(=O)N3CCc4ccccc43)CC2=O)cc1 (stereo not shown)	-23.6
O=c1cc(N2CCN(c3ccc(F)cc3)CC2)[nH]c(=O)n1Cc1ccc(F)cc1	-8.76
COc1ccc(S(=O)(=O)NCCCN2CCOCC2)c2ccccc12	-5.22
CC1CCCN(S(=O)(=O)c2ccc(NC(=O)CNC3CCCC3)cc2)C1 (stereo not shown)	4.64
O=C(O)CC12CC3CC(C1)CC(n1ncc(N4CCC5(CC4)OCCO5)c(Cl)c1=O)(C3)C2	10.2
O=[N+]([O-])c1cc(Cc2ccccc2)cc(C=Nc2ccc(N3CCOCC3)cc2)c1O	12.1
O=C(Nc1ccccc1Cl)NC1(C(=O)N2CCOCC2)CCCCC1	17.5
CCCc1nn(-c2cc(Cl)ccc2OC)c2c1C(=O)CC(C)(C)C2	-21
CC(C)CCN(CCC(C)C)C/C(O)=C(\C#N)c1nc(-c2ccccc2)cs1	-8.81
CCOC(=O)c1cnn(-c2nc(C)cc(C)n2)c1N	-13.2
O=C(CCN1C(=O)C2C3CCC(C3)C2C1=O)OCC(=O)c1cccc([N+](=O)[O-])c1 (stereo not shown)	-4.11
O=C(Nc1cccnc1Oc1ccc(Cl)cc1)c1cccc2ccccc12	3.61
COc1ccc(-c2noc(CN3CCCCC3)n2)cc1OC	-1.49
O=C(NCc1ccccc1)C1CCN(C(=O)Cc2ccccc2)CC1	-4.13
Cc1cccc(-n2c(=O)c3ccccc3n3c(=S)[nH]nc23)c1C	20.4
Cc1nnsc1C(=O)NC1CCCc2c1cnn2-c1ccccc1F (stereo not shown)	8.75
O=C1COc2ccccc2N1Cc1ccccc1Cl	-45.6
COc1ccc(C(=O)CN2CCN(c3ccc(F)cc3)CC2)cc1OC	-32.2
COC(=O)c1cc(=O)n(Cc2ccccc2)c(=NCc2ccccc2)s1	20.1
COc1cc(/C=N/NC(=O)C(=O)NCc2cccnc2)ccc1O	-4.4
